In PubChem BioAssay AID588579 (National Center for Advancing Translational Sciences (NCATS), 2011):
“And” between values parts separate entries of the source, which are not always exact repeats. Identical values can stand only once. The campaign covered roughly 400,000 compounds. About 2,200 (0.55%) were called active. Not shown: some 1% with an inconclusive outcome. The call rests on the fitted dose curve; in most records, active means well fitted inhibition curve with a large enough effect; inconclusive means small, poorly fitted or top-dose-only effect, or another doubt; inactive means no such curve, though single readings can be large or run the other way. Only a part is listed here, and it is no random draw. Some compounds were tested as several samples or in several runs, with calls that do not always agree.

These compounds were tested against DNA polymerase kappa (Homo sapiens) (UniProt Q9UBT6) (assay: qHTS for Inhibitors of Polymerase Kappa). Conditions: purified Pol kappa, fluorescent DNA synthesis assay, 10 min; series mostly up to 107 µM; activity, negative = inhibition: at the top concentration.
Outline: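 10 nM Pol kappa preincubated 15 min at room temperature with compounds, then reaction started with substrate at 50 nM final. Fluorescence read kinetically at 0 and 10 min; buffer-only wells served as negative control.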
On the % scale 0 is the no-effect control and ±100 the full control effect; potency means the concentration at half of the fitted maximal effect.

Chain of UniProt Q9UBT6 (Q9UBT6 whole entry, looked up): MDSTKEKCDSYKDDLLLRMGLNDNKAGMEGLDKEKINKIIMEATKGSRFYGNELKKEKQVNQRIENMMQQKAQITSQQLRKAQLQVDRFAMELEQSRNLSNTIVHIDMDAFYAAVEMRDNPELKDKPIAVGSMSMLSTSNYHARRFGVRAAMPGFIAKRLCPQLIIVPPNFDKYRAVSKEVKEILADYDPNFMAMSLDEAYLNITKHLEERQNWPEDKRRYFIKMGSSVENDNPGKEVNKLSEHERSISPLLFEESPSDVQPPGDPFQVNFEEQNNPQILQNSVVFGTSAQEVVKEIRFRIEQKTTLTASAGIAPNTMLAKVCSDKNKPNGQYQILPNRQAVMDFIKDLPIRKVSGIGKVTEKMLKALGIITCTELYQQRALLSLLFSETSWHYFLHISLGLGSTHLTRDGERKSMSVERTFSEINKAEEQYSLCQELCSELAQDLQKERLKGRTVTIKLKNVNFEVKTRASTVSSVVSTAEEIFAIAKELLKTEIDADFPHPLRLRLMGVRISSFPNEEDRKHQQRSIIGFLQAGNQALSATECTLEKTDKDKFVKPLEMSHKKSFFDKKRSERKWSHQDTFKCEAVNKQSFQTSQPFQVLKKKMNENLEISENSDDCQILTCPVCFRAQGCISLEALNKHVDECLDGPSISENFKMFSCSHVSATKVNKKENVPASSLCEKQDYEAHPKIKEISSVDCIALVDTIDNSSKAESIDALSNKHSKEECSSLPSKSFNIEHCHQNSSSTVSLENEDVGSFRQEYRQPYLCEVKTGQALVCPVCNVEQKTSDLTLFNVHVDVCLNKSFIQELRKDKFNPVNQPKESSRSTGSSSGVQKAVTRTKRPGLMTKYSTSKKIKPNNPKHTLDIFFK

activity, negative = inhibition, inactive:
CCCCCCCCCCCCCCCC[n+]1ccc(CC(O)c2c(C)[nH]c3ccccc23)c2ccccc21 (stereo not given) 64.1%, Nc1ccc2nc[nH]c2c1 -21%, C=C1C(=O)O[C@@H]2C3OC3(C)CC/C=C(\C)CC[C@@H]12 (stereo not given in full) -6.53% [at 19.4 µM], CCCCC(CC)COC(=O)CC(C(=O)OCC(CC)CCCC)S(=O)(=O)O (stereo not given) -17.4% [at 19.4 µM], CCN(CC)[C@@H](C)CN1c2ccccc2Sc2ccccc21 -16.8% [at 19.4 µM], CCOC(=O)[C@H]1O[C@@H]1C(=O)N[C@@H](CC(C)C)C(=O)NCCC(C)C -6.78%, COc1ccc(CCNC(=O)c2ccc(CS(=O)(=O)c3ccc(C)cc3)o2)cc1OC -5.85%, CCOC(=O)C1C(C(=O)OC)=C(C2=CCCCC2)c2ccccc2N1S(=O)(=O)C(F)(F)F (stereo not given) -9.53%, C=CCn1c(=O)n(C2OC(CO)C(O)C2O)c2nc(N)[nH]c(=O)c21 (stereo not given) 14.4% [at 60.1 µM], CCCC1OC2CC3C4CCC5=CC(=O)C=CC5(C)C4C(O)CC3(C)C2(C(=O)CO)O1 (stereo not given) -14% [at 60.1 µM], COc1cc(C(CCN2CCOCC2)c2c(OC)cc(OC)c3c(-c4ccccc4)cc(=O)oc23)cc(OC)c1OC (stereo not given) -7.03%, C#Cc1ccc([C@@H]2C=C(C(=O)O)O[C@H](OCCCCO)C2)cc1 -38.8%, COC(=O)[C@H]1[C@@H]2C[C@@H]3c4[nH]c5ccccc5c4CCN3C[C@H]2CC[C@H]1O -7.59% [at 19.4 µM], CCOC(=O)c1nc(Nc2ccc(C(=O)OC)cc2)c2ccccc2n1 -7.27%, CC(NC(=O)C1CCCN1C(=O)CN)C(=O)O (stereo not given) 10.1% [at 60.1 µM], CCc1cccc(C)c1NC(=O)C1CCN(c2nn3c(=O)cc(C)nc3s2)CC1 0.0163%, CO[C@]1(NC(=O)Cc2cccs2)C(=O)N2C(C(=O)O)=C(COC(N)=O)CS[C@H]21 -0.978% [at 12 µM], NC(=S)N=Nc1ccc(NN=C(N)N)cc1 -14.8%, H-MNYLAFPRM-NH2 19.7% [at 60.1 µM], CCCCCCCCCCCCCCCC(=O)N[C@@H](COP(=O)(O)O)C(=O)O 4.68% [at 19.4 µM], C[C@@H]1C(c2ccc(F)cc2)=NN(c2ccc(Br)cc2)[C@H]1C(=O)N1CCOC1=O -10.4%, O=C(O)C1=CC(=C(c2ccc(O)c(C(=O)O)c2)c2ccc(O)c(C(=O)O)c2)C=CC1=O -98.1%

Potency, active:
COc1cccc2c1C(=O)c1c(O)c3c(c(O)c1C2=O)C[C@@](O)(C(=O)CO)C[C@@H]3OC1CC(N)C(O)C(C)O1 (stereo not given in full) 10.6 µM, CC1=N/C(=C/c2ccco2)C(=O)O1 50.1 µM, Cc1ccc(C)c(S(=O)(=O)Nc2ccc3oc(C)c(C(=O)O)c3c2)c1 79.4 µM, CN(C)c1ccc2cc(S(=O)(=O)O)cc(O)c2c1 31.6 µM, NC(=O)c1ccc(-n2nnnc2SCC(=O)c2ccc(O)c(O)c2)cc1 25.1 µM, O=C1C(=Cc2ccco2)CCC1=Cc1ccco1 5.01 µM, COc1cc(OC)c2ccc(=O)oc2c1C(CC(=O)N1CCCC1)c1ccc2c(c1)OCO2 (stereo not given) 79.4 µM and 50.1 µM, O=C(/C=C/c1ccco1)N(c1ccccn1)c1ccccn1 31.6 µM, Nc1c(N=Nc2ccc([N+](=O)[O-])cc2)c(S(=O)(=O)O)cc2cc(S(=O)(=O)O)c(/C=C/c3ccccc3)c(O)c12 31.6 µM, O=C(Nc1ccc2nc(-c3ccco3)c(-c3ccco3)nc2c1)N1CCCC1 31.6 µM, Cc1cc(/C=C(/C#N)c2nc3ccccc3[nH]2)c(C)n1-c1cc(C(=O)O)cc(C(=O)O)c1 39.8 µM

Potency, inactive:
NC[C@@H]1O[C@H](C23CC4CC(CC(C4)C2)C3)Cc2c1ccc(O)c2O, C[C@H](O)CC(=O)O, COc1cc(/C=C/C(=O)/C=C(O)/C=C/c2ccc(O)c(OC)c2)ccc1O, CNCC(O)c1ccc(O)c(O)c1 (stereo not given), C=C1C(c2ccc(C)cc2)=CCc2cc(C)cc(C)c21, CCOC(=O)C1=C(C)NC(=S)NC1c1cccc(O)c1 (stereo not given), Cc1cc(C)nc(NS(=O)(=O)c2ccc(N)cc2)n1
